This note sets out measurements from PubChem BioAssay AID488969 (Vanderbilt High Throughput Screening Facility, 2010).

SMILES strings stand for the structures. In all, about 110,000 compounds were measured (“z-score”: median about -0.1, highest 2% from about 2 on). Some of the results follow. Calls of active or inactive are those of the source.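 How the source made its calls: active means z-score in the third read window above 3 or below -3; inactive means the rest.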

This assay has as its target Metabotropic glutamate receptor 8 (Rattus norvegicus) (UniProt P70579). The assay is described as follows: rat mGluR8 modulators via GIRK flux, primary screen, cell-based, thallium flux, HTS (AID 488969). The conditions noted are these: HEK293 rat mGluR8, GIRK (G protein-gated inwardly rectifying potassium channel) thallium flux, FluoZin2; at 10 µM; stronger effect = higher value; submaximal glutamate (EC20) added with thallium.
UniProt P70579, sequence (P70579 whole entry, looked up): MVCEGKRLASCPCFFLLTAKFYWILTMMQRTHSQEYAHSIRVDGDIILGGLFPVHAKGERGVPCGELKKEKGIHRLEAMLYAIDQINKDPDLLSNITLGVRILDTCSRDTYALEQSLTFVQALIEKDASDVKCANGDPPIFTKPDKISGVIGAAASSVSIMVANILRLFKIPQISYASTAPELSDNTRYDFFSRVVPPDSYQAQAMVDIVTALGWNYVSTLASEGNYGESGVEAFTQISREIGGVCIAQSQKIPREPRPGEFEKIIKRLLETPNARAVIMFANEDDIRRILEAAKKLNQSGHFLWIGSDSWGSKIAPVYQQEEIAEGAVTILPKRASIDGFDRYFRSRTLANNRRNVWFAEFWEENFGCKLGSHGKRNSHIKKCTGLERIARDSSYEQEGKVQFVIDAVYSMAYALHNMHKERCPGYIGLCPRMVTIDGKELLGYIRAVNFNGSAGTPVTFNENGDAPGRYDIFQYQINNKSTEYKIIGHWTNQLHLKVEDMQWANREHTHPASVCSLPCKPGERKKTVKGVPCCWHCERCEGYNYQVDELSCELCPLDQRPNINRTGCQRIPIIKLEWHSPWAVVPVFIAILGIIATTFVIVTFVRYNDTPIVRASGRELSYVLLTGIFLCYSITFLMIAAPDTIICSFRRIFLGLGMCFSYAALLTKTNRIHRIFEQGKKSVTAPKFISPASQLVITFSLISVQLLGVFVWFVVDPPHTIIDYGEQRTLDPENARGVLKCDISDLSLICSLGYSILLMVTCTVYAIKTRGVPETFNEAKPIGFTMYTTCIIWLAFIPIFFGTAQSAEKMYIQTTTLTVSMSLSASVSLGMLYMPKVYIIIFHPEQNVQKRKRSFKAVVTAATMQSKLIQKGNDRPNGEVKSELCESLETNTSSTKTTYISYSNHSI
On to `COc1ccc(NC2=C(C(C)=O)C(c3ccc(OC)c(OC)c3)C(C(C)=O)C(C)(O)C2)cc1` (centres undefined), for which the z-score was -0.302.
Then `COC(=O)c1onc(-c2c(C)cc(C)cc2C)c1C(=O)OC`, with -0.78; and `CC(=O)c1cccc(NC(=O)C2CCN(S(=O)(=O)c3ccc(C)cc3)CC2)c1`, with 0.101; and `Cc1nn(C)c(C)c1S(=O)(=O)N1CCC(C(=O)NCC2COc3ccccc3O2)CC1` (centres undefined), with 0.14.
`O=C(Nc1ccc2nc(-c3ccccc3)[nH]c2c1)c1cccs1` yielded a z-score of -0.335.
The compound `COC(=O)c1cc(OC)c(OC)cc1NC(=O)c1ccc(OC)cc1` registered a z-score of 1.48.
`Nc1nc(SCC(=O)N2CCCc3ccccc32)n(-c2ccccc2)n1` registered a z-score of 1.69.
`O=C(c1cccs1)n1nc(-c2ccccc2)nc1NCc1ccco1` displayed a z-score of 0.246.
With `OC(c1ccccc1)(c1ccc(F)cc1)C(c1ccccc1)N1CCOCC1` (centres undefined), the z-score was -0.295.
`O=C(COc1ccc(Cl)cc1)Nc1ccc(N2CCN(C(=O)c3ccco3)CC2)cc1`: the z-score is -0.172.
The compound `Cc1ccccc1-c1nn[nH]n1` came in with a z-score of -0.33.
In turn, `Cc1ccc2nc(NCC(=O)O)nc(-c3ccccc3)c2c1` displayed a z-score of -0.812.
The compound `COCc1cc(C)[nH]c(=O)c1C#N` gave a z-score of -0.172.
The compound `Cc1ccc2oc(=O)n(CCOc3ccccc3Cl)c2c1` showed a z-score of 0.434.
Then `CC1CCN(C(=O)C2CCC(C)(C(=O)O)C2(C)C)CC1` (centres undefined), with -0.000982; and `S=C(NCCc1ccccc1)NCC1CCCO1` (centres undefined), with -0.0374; and `CCOC(=O)c1cnc(SCC(=O)Nc2ccc(NC(C)=O)c(OC)c2)nc1N`, with 0.0886.
For the compound `CC(=O)c1cc(C#N)c(SCC(=O)O)nc1C`, the z-score was 0.242.
`N#CC1=C(N)N2C(=C(C#N)C1c1ccccc1)Sc1ccccc12` (centres undefined) had a z-score of 0.634.
In the case of `CNc1sc(C(=O)c2ccccc2F)c(N)c1-c1nc2ccccc2s1`, the z-score was determined as 0.623.
`COc1ccc(/C(O)=C2/C(=O)C(=O)N(CCN3CCOCC3)C2c2cccnc2)cc1OC` (centres undefined) displayed a z-score of 0.473.
Turning to `CCCc1cc(C(=O)Nc2ccc(C(C)=O)cc2)no1`, the z-score is 0.0305.
Then `CCc1cccc(CC)c1NC(=O)c1ccccc1CCc1ccccc1`, with -0.15; and `CC(=O)Nc1cc(C(=O)N(C)Cc2ccco2)ccc1Sc1ccc(Cl)cc1`, with -0.205; and `O=C(O)[C@@H](c1ccccc1)N1Cc2ccccc2C1=O`, with 0.726.
`COc1ccc(N(CC(=O)Nc2ccc(C)c(C)c2)S(=O)(=O)c2c(C)n[nH]c2C)cc1` registered a z-score of -0.00199.
In turn, `C(/CCc1ccccc1)=N\n1cnnc1` had a z-score of 0.337.
In turn, `CCOC(=O)c1c(C)[nH]c(C(=O)OCC(=O)Nc2ccc(OCC)cc2)c1C` returned a z-score of 0.0222.
In the case of `Cc1ccc(-c2nn(-c3ccccc3)cc2CN(Cc2ccccc2)C(=O)c2ccco2)o1`, the z-score is -0.107.
Turning to `CSc1ccccc1NC(=O)Nc1ccccc1`, the z-score came out at 0.531.
With `O=C1C(=O)N(CCCn2ccnc2)C(c2cccnc2)/C1=C(/O)c1ccc(Br)cc1` (centres undefined), the z-score is -0.218.
In turn, `CCC(C)N=Cc1c(NCc2ccco2)nc2c(C)cccn2c1=O` (centres undefined) yielded a z-score of -0.475.
Then `O=C(NCc1cccnc1)C1CCCN(Cc2cnn(-c3ccccc3)c2-n2cccc2)C1` (centres undefined), with 0.201.
Take `CCCC1(C(=O)O)NC(c2cccc(OC)c2O)C2C(=O)N(c3ccccc3)C(=O)C21` (centres undefined): the z-score was -0.169.
In turn, `Cc1ccc(Sc2cc(N3CCOCC3)nc(-c3ccccc3)n2)cc1` returned a z-score of 0.0258.
Compound `O=C(O)CCC1=C2c3ccccc3CCN2C(=O)CC1` showed a z-score of -0.234.
Then `CCN1CCN(c2cc(SC(C)C)nc(-c3ccc(OC)cc3)n2)CC1`, with -0.78; and `CCOC(=O)N1CCC(N(CCN(C)C)C(=S)Nc2cccc(C)c2)CC1`, with 0.181; and `Cc1ccccc1NC(=O)C1CCC(C)(C(=O)O)C1(C)C` (centres undefined), with 0.0725.
`CCOC(=O)N1CCN(C(=O)c2ccc(C#CC3(O)CCCCC3)cc2)CC1` yielded a z-score of 0.0727.
On to `Cc1ccccc1NC(=O)c1ccc(Nc2c([N+](=O)[O-])cc([N+](=O)[O-])c3ccccc23)cc1`, for which the z-score is -0.13.
`Cc1nn(C)c(C)c1S(=O)(=O)N(CC(=O)N1CCc2ccccc2C1)c1ccc(C(C)C)cc1` registered a z-score of -0.0258.
On to `CCC(NC(=O)Nc1nccs1)(C(F)(F)F)C(F)(F)F`, for which the z-score stood at 0.489.
In the case of `CC(C(=O)N1CCCc2ccccc21)N1C(=O)c2ccccc2C1=O` (centres undefined), the z-score is 0.21.
The compound `COc1ccc(N(CC(=O)NCc2cccs2)S(=O)(=O)c2c(C)nn(C)c2C)cc1` returned a z-score of -0.00457.
In turn, `CCC(=O)Nc1ccc(S(=O)(=O)N2CCCCC2)cc1OC` had a z-score of 0.0489.
As to `CS(=O)(=O)N1CCN(C(=S)NCc2ccc(F)cc2)CC1`, the z-score was -0.0373.
The compound `Cc1ccc(NCN2C(=O)C3CC=C(Cl)CC3C2=O)cc1` (centres undefined) came in with a z-score of 0.0121.
Take `COc1cc(C(=O)N(C)c2nnc(-c3cccnc3)s2)cc(OC)c1OC`: the z-score is -0.385.
Regarding `Cn1cc(C=C2C(=O)CC(C)(C)CC2=O)c2ccccc21`, the z-score is -1.12.
Regarding `O=C(c1ccncc1)N1CCN(C(=O)c2cccs2)CC1`, the z-score was found to be 0.201.
For `CCc1ccc2nc(Nc3nc(COC)cc(=O)[nH]3)nc(C)c2c1`, the z-score turned out to be 2.69.
`COc1ccccc1CC(=O)Nc1ccc(-c2noc(COc3ccc(Cl)c(C)c3)n2)cc1` yielded a z-score of -0.166.
Take `CCOC(=O)C(=O)/C(C#N)=C/Nc1ccccc1`: the z-score is -0.0235.
Then `COc1ccc2nc(NC(=O)CN3CCN(C)CC3)sc2c1`, with 0.194; and `O=C(Nc1ccc(F)cc1)N(Cc1ccco1)Cc1cc2cc3c(cc2[nH]c1=O)OCO3`, with 0.316.
On to `Cc1cc(C)c(C)c(OCC(=O)NCc2nc(-c3ccccc3)no2)c1`, for which the z-score was -0.298.
Take `O=C(Nc1ccc(N2CCOCC2)cc1)c1ccc2nc(-c3ccco3)c(-c3ccco3)nc2c1`: the z-score is 0.375.
Then `CCN(CC)c1ccc2cc(-c3nnc(-c4ccc(Br)cc4)o3)c(=O)oc2c1`, with active: -4; and `COc1ccccc1-n1cnc(N)c1C(C)=O`, with 0.258.
`O=C1NC(CCc2ccccc2)C(=O)N1Cc1cccc2ccccc12` (centres undefined): the z-score is -0.311.
Regarding `COc1ccc2nc(SCC(=O)Nc3ccc4sc(C)nc4c3)c(C#N)cc2c1`, the z-score is -0.0545.
Turning to `COc1ccc(OCC(=O)Nc2sc3c(c2C(=O)NCC2CCCO2)CCC3)cc1` (centres undefined), the z-score is -0.55.
In turn, `CCn1c2ccccc2c2cc(CN3CCN(S(C)(=O)=O)CC3)ccc21` came in with a z-score of -0.000409.
Then `CCCC(=O)NC(C)c1nc2ccccc2n1C` (centres undefined), with -0.523; and `CSc1cccc(NC(=O)C2CCCN(S(=O)(=O)c3cnc[nH]3)C2)c1` (centres undefined), with 0.844.
For `CN1/C(=c2/s/c(=C3/C(=O)N(c4ccccc4)NC3=Nc3ccccc3)n(C)c2=O)C(C)(C)c2ccccc21`, the z-score is -0.291.
`COc1ccc2cc(C(c3nnnn3Cc3ccc(F)cc3)N3CCCCCC3)c(=O)[nH]c2c1` (centres undefined) yielded a z-score of 0.021.
Then `O=C(CC(Nc1ccc(F)cc1)c1ccccc1)c1ccccc1` (centres undefined), with -0.345.
